The campaign covered roughly 310,000 compounds. About 2,200 (0.71%) showed an effect of 50% or more. The effect is printed as a negative number. The list shows a part of the results.
What follows are compounds tested against human ether-à-go-go-related gene (hERG) potassium channel (human, UniProt Q12809) (assay: primary screen, population patch clamp on CHO cells stably expressing hERG).
Chain of human ether-à-go-go-related gene (hERG) potassium channel (Q12809 whole entry, looked up): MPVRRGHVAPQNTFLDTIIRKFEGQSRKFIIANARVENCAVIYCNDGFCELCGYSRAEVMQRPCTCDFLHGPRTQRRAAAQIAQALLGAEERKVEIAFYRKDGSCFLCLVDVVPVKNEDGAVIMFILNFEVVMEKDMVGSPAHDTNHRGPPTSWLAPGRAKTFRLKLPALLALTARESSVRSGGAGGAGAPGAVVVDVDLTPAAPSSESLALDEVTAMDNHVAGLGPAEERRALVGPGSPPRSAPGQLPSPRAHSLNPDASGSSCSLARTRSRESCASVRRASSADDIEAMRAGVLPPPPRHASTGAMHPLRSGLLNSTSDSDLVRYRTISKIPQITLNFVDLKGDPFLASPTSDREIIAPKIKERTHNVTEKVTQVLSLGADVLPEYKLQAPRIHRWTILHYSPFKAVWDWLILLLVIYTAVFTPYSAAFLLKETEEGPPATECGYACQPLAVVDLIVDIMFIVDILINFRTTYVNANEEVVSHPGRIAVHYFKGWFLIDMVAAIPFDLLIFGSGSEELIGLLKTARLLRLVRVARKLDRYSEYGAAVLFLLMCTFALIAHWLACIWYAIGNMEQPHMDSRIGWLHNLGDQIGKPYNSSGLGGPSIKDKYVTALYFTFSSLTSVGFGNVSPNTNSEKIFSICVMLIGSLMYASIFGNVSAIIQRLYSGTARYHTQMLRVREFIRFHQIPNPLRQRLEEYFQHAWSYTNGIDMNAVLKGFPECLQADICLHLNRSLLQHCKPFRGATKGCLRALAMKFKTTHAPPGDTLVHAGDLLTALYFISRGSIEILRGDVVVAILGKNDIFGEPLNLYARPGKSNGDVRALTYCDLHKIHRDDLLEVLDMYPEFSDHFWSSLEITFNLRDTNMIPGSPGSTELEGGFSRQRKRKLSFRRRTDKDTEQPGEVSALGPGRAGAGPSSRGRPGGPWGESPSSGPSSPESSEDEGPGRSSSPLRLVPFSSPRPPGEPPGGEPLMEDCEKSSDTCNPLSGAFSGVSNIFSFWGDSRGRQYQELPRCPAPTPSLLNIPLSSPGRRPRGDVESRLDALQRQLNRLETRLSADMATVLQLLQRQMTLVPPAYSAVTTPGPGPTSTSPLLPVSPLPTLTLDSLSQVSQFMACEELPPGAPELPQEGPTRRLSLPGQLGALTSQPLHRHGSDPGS

SMILES	hERG current change (%, negative = inhibition) at 1uM [%]
COc1ccccc1C(CNC(=O)C(CCSC)NS(=O)(=O)c1ccccc1F)N1CCCC1 (stereo not drawn)	-3.75
CCOc1ccccc1NC(=O)C1CCCN(c2c(CC)c(C)nc3ncnn23)C1 (stereo not drawn)	-22.2
CN(C(=O)CCc1nnc(CCCCc2ccccc2)o1)C1CC(C)(C)NC(C)(C)C1	11.3
COc1cccc(C2CC(=O)Nc3c2c(=O)n(C)c(=O)n3C)c1OC (stereo not drawn)	12.3
COc1ccc(-c2nnc3n2CCCCC3)cc1OC	10.3
O=C(NCCc1ccc(F)cc1)C1CCCO1 (stereo not drawn)	8.13
Cc1cc(C(=O)OCC(=O)NC(C)C)c(C)o1	12.2
O=C1CC(N2CCN(C/C=C/c3ccccc3)CC2)C(=O)N1Cc1ccc(N2CCCC2=O)cc1 (stereo not drawn)	-13
O=C1Cc2ccccc2C(=O)N1Cc1cccc(Cl)c1	6.17
CC(=O)c1cccc(NC(=O)COC(=O)CCc2ccc(S(=O)(=O)N3CCOCC3)cc2)c1	5.85
O=C(CNS(=O)(=O)c1ccc(F)cc1)Nc1ccccc1	13.1
CC1(OC(=O)C2CCCC2)C(=O)C=C2C=C(c3ccsc3)N(c3ccccc3)C=C2C1=O (stereo not drawn)	10.7
COC(=O)Cc1c(C)c2cc(Cl)c(OC(=O)c3ccco3)cc2oc1=O	19.8
COc1ccc(C(=O)Nc2ccc(S(=O)(=O)Nc3ncccn3)cc2)cc1OC	15.7
Cc1ccc(-c2nc(=S)c3c(n2CC2CCCO2)CC(C)(C)OC3)cc1 (stereo not drawn)	1.15
CCOC(=O)C1=C(C)OC(N)=C(C#N)C1c1ccc(C)s1 (stereo not drawn)	9.11
COc1ccccc1C(=O)Nc1ccc(N2CCN(C(C)=O)CC2)cc1	13.3
O=C(NCC(c1ccco1)N1CCc2ccccc2C1)c1cccc([N+](=O)[O-])c1 (stereo not drawn)	-9.65
Nc1cn(C2OC(CO)C(O)C2O)c(=O)[nH]c1=O (stereo not drawn)	12.5
CC(=O)N/C(=C/c1ccccc1)C(=O)NC(Cc1ccccc1)C(=O)O (stereo not drawn)	16.8
COc1ccc(N(C(C)=O)S(=O)(=O)c2cccs2)cc1	14.2
COC(=O)CSc1nc(NCc2ccccc2)nc(N(C)C)n1	8.88

SMILES	hERG current change (%, negative = inhibition) at 1uM [%]
O=C(Cn1cc2c(n1)CCCC2)NCc1cccnc1	10.8
COCCNC(=O)Cn1c(=O)n(CCC(=O)NCCc2ccccc2)c(=O)c2ccccc21	7.92
CCOC(=O)c1sc(=N)n(-c2ccc(OC)cc2)c1C	9.86
O=C(CCC1CCN(C(=O)c2cc(C(F)(F)F)ccc2Cl)CC1)NC1CC1	6.54
CCOC(=O)C1CCN(c2cc3c(cc2NC(=O)c2ccccc2Br)n(C)c(=O)n3C)CC1	13.8
CC1CC1C(=O)Nc1nc(-c2ccccc2)cs1 (stereo not drawn)	5.05
Cc1cc(C(=O)CSc2nnc(-c3ccco3)o2)c(C)n1-c1ccc2c(c1)OCCO2	7.7
Cc1ccc(C)c(OCCCCN2CCCCC2)c1.O=C(O)C(=O)O	2.35
COc1cc2c(cc1OC)C(C)NCC2.Cl (stereo not drawn)	15.1
COc1cc(C)c(S(=O)(=O)n2nnc3ccccc32)cc1C	11.7
CC(NC(=O)c1ccc(F)cc1Cl)C1CC2CCC1C2 (stereo not drawn)	15.6
CCc1ccc(C2CC(c3ccc(F)cc3)Nc3nc(N)nn32)cc1 (stereo not drawn)	5.99
COc1ccc(N2CCN(S(=O)(=O)CCNC(=O)c3ccco3)CC2)cc1	5.7
COc1ccc(C)cc1C1=CC(=O)C[C@H](c2ccc(F)cc2)C1	4.96
Cc1ccc(C(=O)O/N=C(\c2ccccc2)c2cccnc2)cc1	9.91
Cc1ccc(S(=O)(=O)NNC(=O)/C=C/c2cccc(F)c2)cc1	12.3
CC1(OC(=O)CCc2ccccc2)C(=O)C=C2C=C(c3ccc(C#N)cc3)N(CCN3CCOCC3)C=C2C1=O (stereo not drawn)	-2.54
CCc1nnc(NC(=O)C(c2ccccc2)c2ccccc2)s1	21.4
CC1(C)CC(=O)C2=C(C1)N(Cc1ccco1)C(=O)C2(NC(=O)c1cccnc1)C(F)(F)F (stereo not drawn)	-5.47
COc1ccc(C(=O)N2CCN(c3ccc(NC(=O)c4cccs4)cc3)CC2)cc1	6.61
Cn1cc(CN2CCCCC2CO)c(-c2ccc(Oc3ccccc3)cc2)n1 (stereo not drawn)	-8.54
Cc1ccc(S(=O)(=O)NC(=O)c2cc(C)n(C3CC3)c2C)cc1	8.77

SMILES	hERG current change (%, negative = inhibition) at 1uM [%]
Cc1cnc(C(=O)OCC(=O)N2CCc3ccccc32)cn1	-5.43
CCOC(=O)CCC(NC(=O)CCCCC(=O)NC(CCC(=O)OCC)C(=O)OCC)C(=O)OCC (stereo not drawn)	9.03
CCOc1ccccc1N1CC(C(=O)Nc2ccc(S(=O)(=O)N3CCCCC3)cc2)CC1=O (stereo not drawn)	4.87
COc1ccc(/C=N/NC(=O)C(C)Sc2ccccn2)cc1[N+](=O)[O-] (stereo not drawn)	-2.07
CSc1sc(C(=O)O)c2c1C(=O)CCC2	13
Cc1csc(/N=C/c2ccc([N+](=O)[O-])cc2)n1	3.72
COc1ccc(/C=C/CN2CCN(Cc3ccccc3)C(CCO)C2)cc1 (stereo not drawn)	-28.9
Cc1occc1C(=O)NNC(=S)NCc1ccccc1	2.29
CCCCn1c(=O)[nH]c(=O)c2c1nc(-c1cccc(OC)c1)n2C	17.8
COc1ccc(NC(=O)CN(C)S(=O)(=O)c2ccc3[nH]c(=O)oc3c2)cc1	13.4
O=C(NCCc1c[nH]c2ccccc12)c1cc(Cl)c2c(c1)OCO2	12.1
CCCN1CCN(C(=S)Nc2ccc(S(N)(=O)=O)cc2)CC1	15.3
COc1ccccc1OCCC(=O)OCC(=O)Nc1ccc(S(=O)(=O)N2CCOCC2)cc1	-2.03
COCCSc1nnc(-c2cccc(C#N)c2)n1C	2.38
Cc1ccc(N(Cc2ccccc2)C(=O)c2cccc(S(=O)(=O)N3CCN(C)CC3)c2)cc1	-10.5
Cc1ccc(NC(=O)CSc2ccc(-c3cccnc3)nn2)cc1Cl	3.03
CCOC(=O)C1CCN(C(=O)CCN2C(=O)C3C4C=CC(C4)C3C2=O)CC1 (stereo not drawn)	7.6
Cc1ccc(O)c(C(=O)c2cnn(C(=O)Cc3csc(C)n3)c2)c1	13.4
O=C(C1CCCCC1)N1CCCc2ccccc21	5.4
Oc1[nH]c2ccccc2c1C=Nc1ccc2c(c1)OCO2	7.7
Cc1ccnc(NC(=O)CCS(=O)(=O)c2ccccc2)c1	18.1
C/C(=N/NC(=O)Cc1ccccc1)c1ccc(C)s1	11.5

SMILES	hERG current change (%, negative = inhibition) at 1uM [%]
O=C(COC(=O)CN1C(=O)c2ccccc2C1=O)Nc1ccc(S(=O)(=O)N2CCCC2)cc1	4.89
O=C(CN1CCN(c2ccccn2)CC1)N1c2ccccc2Sc2ccc(C(F)(F)F)cc21	-9.71
Cc1[nH]n(-c2ccc([N+](=O)[O-])cc2)c(=O)c1C=NCCN1CCN(C(=O)c2ccccc2)CC1	-77
COC(=O)C1CCN(C(c2cc(OC)c(OC)c(OC)c2)c2sc3nc(C)nn3c2O)CC1 (stereo not drawn)	11.1
Cc1ccc([N+](=O)[O-])cc1NC(=O)CNC1CCCCC1	-0.383
CS(=O)(=O)N1CCN(C(=O)c2ccccc2)C1	18.7
CC(=O)O[C@]1(C(C)=O)CCC2C3C=C(C)C4=CC(=O)CC[C@]4(C)C3CC[C@@]21C (stereo partly drawn)	6.1
Cc1ccc(-c2c(C(=O)N/N=C/c3cccs3)nnn2-c2nonc2N)cc1	22.2
Cc1ccc(C)c(N2CCN(C(=O)C3CCCN(c4ncnc5c4nc4n5CCCCC4)C3)CC2)c1 (stereo not drawn)	13.3
O=C1Nc2ccc(F)cc2C12Nc1ccccc1-c1nnc(SCc3ccccc3F)nc1O2 (stereo not drawn)	9.86
CCCCOC(=O)Nc1ccccc1C(N)=O	4.25
O=[N+]([O-])c1ccccc1/C=C/CN1CCCC(CO)C1 (stereo not drawn)	8.86
O=C(C1CCN(S(=O)(=O)c2cccc3cccnc23)CC1)N1CCN(c2ccccc2)CC1	-1.86
O=C(NCc1ccc(F)cc1)c1ccc2c(=O)n3c(nc2c1)CCCCC3	-6.04
Br.N=c1n(CC(=O)c2cccs2)c2ccccc2n1Cc1ccccc1	-7.48
O=C(CNC(=O)COc1ccccc1)NCCN1CCOCC1	5.89
COc1ccc(Cc2nc3ccccc3[nH]2)cc1OC	9.68
CC(OC(=O)C1CCN(S(=O)(=O)c2ccc(Cl)cc2)CC1)C(=O)NC1CCCCC1C (stereo not drawn)	3.83
COc1ccccc1CNC(=O)CCCn1nc(C)c2c(C)n(-c3ccc(C)cc3)nc2c1=O	0.392
COc1ccc(C(C)=O)cc1Cc1c(O)[nH]c(=S)[nH]c1=O	6.22
Cn1ncc(N2CCN(S(=O)(=O)c3ccc(Br)cc3)CC2)c(Cl)c1=O	-9.79

Source: paper PMC4336329 (PLoS ONE, 2015)
